Values joined by “and” are separate entries in the source; they are usually repeats but may differ in a detail not shown here. Equal values may be shown once. Out of some 200,000 compounds screened, about 4,500 (2.2%) were called active. The inconclusive results got no clear call from the source; some entries with a clear call stand among them for comparison. The call rests on the fitted dose curve; in most records, active means well fitted inhibition curve with a large enough effect; inconclusive means small, poorly fitted or top-dose-only effect, or effect the other way; inactive means flat fitted curve, though single readings scatter. Potencies of inconclusive entries are doubtful fits and often do not repeat. More than one record can exist for a structure, and the calls need not agree.
These compounds were tested against Cruzipain (Trypanosoma cruzi) (UniProt P25779) (assay: qHTS Assay for Promiscuous and Specific Inhibitors of Cruzain (without detergent)). Settings: purified cruzain, Z-FR-AMC fluorescence, no detergent.
UniProt P25779, sequence (P25779 whole entry, looked up): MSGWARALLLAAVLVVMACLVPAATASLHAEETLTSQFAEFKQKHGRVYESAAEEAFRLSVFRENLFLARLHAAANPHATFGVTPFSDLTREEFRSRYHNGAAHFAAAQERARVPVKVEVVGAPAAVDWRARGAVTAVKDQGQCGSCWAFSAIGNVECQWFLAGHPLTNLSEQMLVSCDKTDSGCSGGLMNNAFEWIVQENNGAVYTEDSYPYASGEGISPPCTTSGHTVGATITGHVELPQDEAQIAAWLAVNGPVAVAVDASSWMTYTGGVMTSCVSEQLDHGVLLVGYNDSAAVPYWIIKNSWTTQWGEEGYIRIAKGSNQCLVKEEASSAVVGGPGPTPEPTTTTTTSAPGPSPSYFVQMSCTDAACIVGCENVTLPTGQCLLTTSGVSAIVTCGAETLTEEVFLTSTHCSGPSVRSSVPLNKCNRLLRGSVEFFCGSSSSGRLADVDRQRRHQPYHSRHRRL
Procedure, shortened: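 Detergent-free condition (0.00005% Triton X-100) in acetate buffer pH 5.5 with DTT. 1.5 nM enzyme and compound were pre-mixed 15 min, then 2 uM Z-FR-AMC substrate added; reaction progress from fluorescence change between first and third reads (60 s).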
In the case of `CCOC(=O)c1c(C)n(Cc2ccccc2)c2ccc(OCC(O)CN3C(=O)CNC3=O)cc12` (centres undefined), the Potency is reported as inconclusive: 31.6 µM [activator, single point].
In the case of `Cn1c(=O)c2c(SCC(=O)NCc3ccco3)nc(-c3ccccc3Cl)nc2n(C)c1=O`, the Potency is reported as inconclusive: 25.1 µM [inhibitor, single point].
For `CCOC(=O)c1ccc(Nc2c(-c3ccc(O)cc3)nc3nc[nH]n23)cc1`, the max response, negative = inhibition was inactive: 11%.
In the case of `Cc1ccc(CSc2nnc(NC(=O)C3COc4ccccc4O3)s2)cc1` (centres undefined), the Potency is reported as inconclusive: 39.8 µM [inhibitor, single point].
`CCCCC(CC)Cn1c(O)c(/C=C2\C=NN=C2c2ccccc2)sc1=S` (centres undefined) was tested, and the Potency was active: 7.94 µM.
With `Cc1ccc(-n2c(C)cc(C(=O)COC(=O)c3ccc[nH]c3=O)c2C)cc1C` the Potency was inconclusive: 39.8 µM [inhibitor, single point].
In the case of `COc1cc(OC)cc(-n2nc(C(=O)N3CC(C)CC(C)C3)c3ccccc3c2=O)c1` (centres undefined), the Potency is reported as inconclusive: 31.6 µM [activator, single point].
In the case of `CCCCC(=O)Nc1cccc(OCc2cc(=O)n3ccccc3n2)c1`, the max response, negative = inhibition is reported as inactive: 10.9%.
For `CCCc1cc(=O)[nH]c(SCc2ccc(Cl)cc2)n1`, the Potency was inconclusive: 31.6 µM [inhibitor, single point].
`CCN(CC)C(=S)SSC(=S)N(CC)CC` was tested, and the Potency was active: 12.6 µM and active: 7.94 µM.
In the case of `COc1ccc(C(=O)CN2C(=O)N(c3cc(C)cc(C)c3)S(=O)(=O)c3ccccc32)cc1`, the Potency is reported as inconclusive: 39.8 µM [inhibitor, single point].
In the case of `COC(=O)[C@H]1CC2(CC=C(C)C)C(=O)[C@@](CC=C(C)C)(C(=O)C(C(=O)c3ccccc3)=C2OC)C1(C)C` (tested in a mixture with another compound), the Potency is reported as inconclusive: 31.6 µM [activator, single point].
With `CCOc1ccc(N(CC(=O)NC2CCCCC2)C(=O)CSc2nnc(COc3ccccc3)o2)cc1` the Potency was inconclusive: 15.8 µM [activator, single point].
For `COc1ccc(Nc2nnc(SC(C(=O)Nc3ccc(OC)c(Cl)c3)c3ccccc3)s2)cc1` (centres undefined), the Potency was active: 6.31 µM.
In the case of `CC(=O)c1c(C)[nH]c(C(=O)Nc2nc(-c3ccc(Cl)cc3)cs2)c1C`, the max response, negative = inhibition is reported as inactive: -11.2%.
`CCOC(=O)CSc1nc2cc3c(cc2c(=O)n1CCCC(=O)NCc1ccc2c(c1)OCO2)OCO3` was tested, and the max response, negative = inhibition was inactive: 10.7%.
For `Cc1nn(C)c(C)c1NC(=O)CCCSc1nc(-c2ccco2)cc(C(F)(F)F)n1`, the Potency was inconclusive: 31.6 µM [activator, single point].
`CCOc1ccc(CCNC(=O)CN2CCN(Cc3ccc(F)cc3Cl)C2=O)cc1OCC` was tested, and the Potency was inconclusive: 25.1 µM [activator, single point].
With `COC(=O)c1ccccc1-c1ccc(/C=N/NC(=O)c2cc3ccccc3o2)o1` the Potency was inconclusive: 20 µM [inhibitor, single point].
For `CCN(CC)CCn1c(SCC(=O)NCc2ccco2)nc2c(sc3ccccc32)c1=O`, the Potency was inconclusive: 25.1 µM [inhibitor, single point].
In the case of `CCn1c(N)c(C(=O)NCc2ccco2)sc1=S`, the Potency is reported as inconclusive: 20 µM [inhibitor, single point].
For `COc1cc(OC)c(NC(=O)CN2C(=O)CCn3nc(-c4cccn4C)cc32)cc1Cl`, the Potency was inconclusive: 31.6 µM [activator, single point].
`COC(=O)C(Cc1ccccc1)NC(=O)C(CC(C)C)NC(=O)OC(C)(C)C` (centres undefined) was tested, and the Potency was active: 31.6 µM.
For `COc1ccccc1Nc1nc(-c2cccc(N3C(=O)c4ccccc4C3=O)c2)cs1`, the Potency was active: 7.94 µM.
With `Cn1cc(S(=O)(=O)N2CCCCCC2)cc1C(=O)N1CCN(c2ccc(F)cc2)CC1` the Potency was inconclusive: 31.6 µM [activator, single point].
For `CCOc1ccc(NC(=O)C(=O)NCCc2csc(-c3ccc(F)cc3)n2)cc1`, the max response, negative = inhibition was inactive: -0.301%.
`O=C(Nc1ccccc1N1CCCC1)c1cc2ccccc2o1` was tested, and the max response, negative = inhibition was inactive: -12.6%.
For `Cc1ccc(Cn2c(=O)c3cccnc3n(CC(=O)Nc3cccc(C(F)(F)F)c3)c2=O)cc1`, the Potency was inconclusive: 39.8 µM [inhibitor, single point].
In the case of `N#Cc1nc(-c2ccc(OCc3ccc(Cl)cc3)cc2)oc1N1CCOCC1`, the Potency is reported as inconclusive: 31.6 µM [inhibitor, single point].
`COc1ccccc1N1CCN(C(=O)c2oc3cc(C)c(C)cc3c2C)CC1` was tested, and the Potency was inconclusive: 31.6 µM [activator, single point].
With `Cc1c(Cl)cccc1NC(=O)CSc1ncnc2c1sc1ccccc12` the max response, negative = inhibition was inactive: -5.61%.
For `COc1ccc(N(CC(=O)NC2CCCC2)C(=O)Cn2nnc(-c3ccc(F)cc3)n2)cc1OC`, the Potency was inconclusive: 39.8 µM [activator, single point].
With `Cc1ccc(Cl)cc1N1CCN(C(=O)C2CCN(S(=O)(=O)c3c(C)nn(C)c3C)CC2)CC1` the Potency was inconclusive: 25.1 µM [activator, partial curve].
`Cc1nn(-c2ccccc2)c2sc(-c3nnc(SCC(=O)O)o3)cc12` was tested, and the Potency was inconclusive: 39.8 µM [activator, single point].
In the case of `NC(=S)N/N=C\c1c[nH]c2ccccc12`, the Potency is reported as active: 0.316 µM.
In the case of `Cc1c(NC(=O)c2cc(-c3ccc(Cl)s3)nc3ccccc23)c(=O)n(-c2ccccc2)n1C`, the Potency is reported as inconclusive: 39.8 µM [activator, single point].
In the case of `O=C1CCCC/C1=N\Nc1ccc(OCc2ccccc2)cc1`, the Potency is reported as inconclusive: 39.8 µM [inhibitor, single point].
`CCc1ccccc1NS(=O)(=O)c1ccc2[nH]cc(C(=O)N3CCCCC3)c(=O)c2c1` was tested, and the Potency was inconclusive: 1 µM [activator, full curve, poor fit].
`O=C(COC(=O)CN1C(=O)c2ccccc2C1=O)Nc1ncc(Cl)cc1Cl` was tested, and the max response, negative = inhibition was inactive: -20.4%.
`O=C(CC1N=C2c3ccccc3N=C(SCc3ccc(Cl)cc3)N2C1=O)NCc1ccco1` (centres undefined) was tested, and the Potency was inconclusive: 39.8 µM [activator, single point].
In the case of `Cc1nc2c(-c3ccccc3)c(C)nn2c(C)c1CCC(=O)NC(C)c1ccccc1` (centres undefined), the Potency is reported as inconclusive: 39.8 µM [activator, single point].
In the case of `CCOc1ccc(/C=c2\sc3nc(-c4ccco4)nn3c2=O)cc1OCC`, the Potency is reported as inconclusive: 20 µM [activator, partial curve].
For `O=C(Nc1ccc(F)cc1)c1ccc(COc2ccccc2)cc1`, the Potency was active: 12.6 µM.
In the case of `CC(/C=C/C=C/c1ccccc1)=N/NC(=O)CNc1ccc(C)cc1`, the Potency is reported as inconclusive: 25.1 µM [inhibitor, single point].
In the case of `Cc1cc(F)ccc1NC(=O)CCS(=O)(=O)c1ccc2c(c1)NC(=O)CO2`, the Potency is reported as inconclusive: 31.6 µM [inhibitor, single point].
`Cc1sc2nc(CN3CCCC3)nc(N3CCN(S(=O)(=O)c4cccs4)CC3)c2c1C` was tested, and the Potency was active: 15.8 µM.
With `COc1ccc(NCc2cc3cc4c(cc3n(CC(=O)Nc3ccc(F)cc3F)c2=O)OCO4)cc1` the Potency was inconclusive: 25.1 µM [inhibitor, single point].
For `CC1CC(C)CN(S(=O)(=O)c2ccc(C(=O)Nc3nnc(-c4cccs4)o3)cc2)C1` (centres undefined), the Potency was inconclusive: 25.1 µM [activator, partial curve].
`CC(C)C[C@H](NC(=O)C1OC1C(=O)O)C(=O)NCCCCN=C(N)N` (some centres undefined) was tested, and the Potency was active: 0.0398 µM.
`COc1ccc2c(C)c(CCC(=O)NCCc3ccccc3OC)c(=O)oc2c1` was tested, and the max response, negative = inhibition was inactive: -6.38%.
In the case of `CC1(C)S[C@@H]2[C@H](NC(=O)[C@@H](N)c3ccccc3)C(=O)N2[C@H]1C(=O)O[C@H]1OC(=O)c2ccccc21`, the max response, negative = inhibition is reported as inactive: -21.2%.
In the case of `Cc1ccc(NC(=O)N2CCC(c3nc4c(nnn4Cc4cccc(Cl)c4)c(=O)[nH]3)CC2)cc1`, the Potency is reported as inconclusive: 20 µM [activator, partial curve].
In the case of `COc1ccc(N(Cc2cccs2)C(=O)COc2cccc(Cl)c2)cc1`, the max response, negative = inhibition is reported as inactive: 11.1%.
In the case of `Cc1cc(C)nc(NC(=O)CSc2nc3cc(Cl)ccc3s2)n1`, the max response, negative = inhibition is reported as inactive: 6.36%.
In the case of `Fc1ccc(-c2nc(Nc3cccc(Cl)c3)nc3c2COc2ccccc2-3)cc1`, the Potency is reported as inconclusive: 5.01 µM [inhibitor, full curve].
With `CCC(=O)Nc1ccc2oc(-c3cccc(C)c3)nc2c1` the Potency was inconclusive: 31.6 µM [activator, single point].
`CCC1(C)NC(=O)N(CC(=O)N2N=C(c3ccccc3)CC2c2ccc(OC)cc2)C1=O` (centres undefined) was tested, and the Potency was inconclusive: 20 µM [activator, single point].
For `CCOC(=O)c1cccc(NC(=O)c2cc3c(=O)n(Cc4ccccc4)ccc3nc2C)c1`, the Potency was inconclusive: 31.6 µM [activator, single point].
`Cc1nc2oc(C(=O)c3ccc(Br)cc3)c(N)c2c2c1COC(C)(C)C2` was tested, and the Potency was inconclusive: 39.8 µM [activator, single point].
With `C=C(C)Cn1c(=O)c2c(nc3n2CCN3c2ccc(CC)cc2)n(C)c1=O` the max response, negative = inhibition was inactive: -8.04%.
With `CCOC(=O)C1=CC(OC(CC)CC)C(NC(C)=O)C(N)C1` (centres undefined) the max response, negative = inhibition was inactive: -12.6%.
For `COc1ccc(NC(=O)c2cc3c(s2)-c2c(C)cccc2OC3)c(OC)c1`, the Potency was inconclusive: 39.8 µM [inhibitor, single point].
`COc1ccc(C(=O)NC(=S)Nc2ccc3oc(=O)ccc3c2)cc1` was tested, and the Potency was inconclusive: 20 µM [inhibitor, single point].
For `C[C@]1(C(=O)NCC2CC2)C=C[C@@H](Cc2ccccc2)N1C(=O)c1ccccc1`, the max response, negative = inhibition was inactive: -1.14%.
Further: nearly all actives have a fitted effect of over 40% in size.
Potency means the concentration at half of the fitted maximal effect; tags describe the fitted curve by direction and shape.
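Wherever max response, negative = inhibition is given: plate controls were enzyme without inhibitor for no effect and buffer without enzyme for full effect.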
